Assay results taken from CN110300763A.

Molecular target: 人CXCR3 (重组人CXCR3) (人) (UniProt P49682)
Test: 结合动力学 (表5; method and antigen form not stated in Example 1)

Sequence of UniProt P49682 (P49682 whole entry): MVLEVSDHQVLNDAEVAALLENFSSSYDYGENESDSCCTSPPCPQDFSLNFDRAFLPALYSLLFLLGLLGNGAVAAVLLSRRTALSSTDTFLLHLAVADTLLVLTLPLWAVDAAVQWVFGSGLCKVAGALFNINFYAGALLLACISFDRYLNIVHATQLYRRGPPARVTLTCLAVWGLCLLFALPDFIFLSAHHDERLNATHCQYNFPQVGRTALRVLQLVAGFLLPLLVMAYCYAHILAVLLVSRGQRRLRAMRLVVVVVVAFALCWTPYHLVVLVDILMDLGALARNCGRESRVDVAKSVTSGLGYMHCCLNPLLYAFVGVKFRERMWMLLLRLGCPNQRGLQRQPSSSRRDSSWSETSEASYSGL

B1: 人源化抗CXCR3 mAb 53Hu37 (antibody, part only; not given: CH1 part and light constant region, part only)
heavy, part: EVQLLESGGGLVQPGGSLRLSCAASGFTFTSYAMSWVRQAPGKGLEWVATISHGGTYTYYPDSVKGRFTISRDNAKNTLYLQMNSLRAEDTAVYYCARHPIYSGNYQGYFDYWGQGTLVTVSSSLGTQTYICNVNHKPSNTKVDKKV[letters of human IgG1 Fc left out]
light, part: DIQLTQSPSFLSASVGDRVTITCRASSGVNYLYWYQQKPGKAPKLWIYFTSTLASGVPSRFSGSGSGNEYTLTISSLQPEDFATYYCQQFTSSPYTFGQGTKLEIK
For B1, the Kd was 0.957 nM, the koff was 6.48e-05 s⁻¹ and the kon was 67400 M⁻¹ s⁻¹.
